Measured values as given in the supplement of paper PMC6135742.
Where a name gives a salt, the structure may show the parent alone. ± gives the standard deviation of the averaged measurements. In all, about 2,600 compounds were measured (“total cell number (DAPI+ nuclei) relative to DMSO vehicle control”: median about -1.4, lowest 2% from about -23 on). This is one part of the list.

tested on: jimpy (Plp1 jimpy) mouse iPSC-derived oligodendrocyte progenitor cells; test: total cell number (DAPI+ nuclei) relative to DMSO vehicle control (SDs above negative control mean); higher = more surviving cells; details: 10 µM; 3 days
Experimental: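 Primary phenotypic screen of >3,000 bioactive compounds (Selleck L1700 and Sigma LO1280 libraries) at a single dose of 10 µM. Compounds were added to jimpy (Plp1 mutant) mouse iPSC-derived OPCs at the start of thyroid hormone-induced oligodendrocyte differentiation, one well per compound in 384-well plates. After 3 days cells were stained for MBP, Sox10 and DAPI and imaged with an Operetta system. MBP+ oligodendrocyte number and total cell number were expressed as the number of SDs above the mean of the DMSO negative control on the same plate (n=16 control wells per plate). Hits were defined as >=4 SD for oligodendrocytes and >=2 SD for total cells.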

| Structure (SMILES) | total cell number |
| --- | --- |
| COc1cc([C@@H]2c3cc4c(cc3[C@H](O)[C@H]3COC(=O)[C@H]23)OCO4)cc(OC)c1OC [Podophyllotoxin] | -3.41 |
| CCC1(c2cccc(O)c2)CCCCN(C)C1 (centres undefined) [Meptazinol HCl] | -0.338 |
| C[C@@H]1CC[C@H]2[C@@H](C)C(=O)O[C@@H]3O[C@@]4(C)CC[C@@H]1[C@]32OO4 [Artemisinin] | -5.57 |
| CS(=N)(=O)CC[C@H](N)C(=O)O (stereo partly drawn) [L-Methionine sulfoximine] | -1.34 |
| C#C[C@]1(O)C=C[C@H]2[C@@H]3CCC4=CC(=O)CC[C@@H]4[C@H]3CC[C@@]21CC [Gestodene] | -1.69 |
| CN(c1nc2ccccc2s1)C1CCN(C[C@H](O)COc2ccc(F)c(F)c2)CC1 [Lubeluzole dihydrochloride] | 1.07 |
| CC(C)(C)NCC(O)c1ccccc1Cl (centres undefined) [Tulobuterol hydrochloride] | -1.3 |
| CC1(C(=O)O)C2CCC(O2)C1(C)C(=O)O (centres undefined) [Cantharidic Acid] | -11.3 |
| Cc1cccc([C@H](C)c2c[nH]cn2)c1C [Dexmedetomidine] | 0.763 |
| CC(=O)OCC1=C(C(=O)O)N2C(=O)[C@@H](N)[C@H]2SC1 [7-Aminocephalosporanic acid] | 0.0421 |
| C=C(C)[C@@H]1[C@H]2OC(=O)[C@@H]1[C@]1(O)C[C@H]3OC34C(=O)O[C@H]2[C@@]41C.CC(C)(O)[C@@H]1[C@H]2OC(=O)[C@@H]1[C@]1(O)C[C@H]3OC34C(=O)O[C@H]2[C@@]41C (some centres undefined) [Picrotoxin] | -0.998 |
| CCCN1CCc2cc(O)cc3c2[C@H]1Cc1ccc(O)c(O)c1-3 [R(-)-2,10,11-Trihydroxy-N-propylnoraporphine hydrobromide] | -3.99 |
| CC(=O)OC12COC1CC(O)C1(C)C(=O)C(O)C3=C(C)C(O)CC(O)(C(OC(=O)c4ccccc4)C21)C3(C)C (centres undefined) [10-Deacetylbaccatin-III] | -4.79 |
| C#CCN[C@H](C)Cc1ccccc1 [R-(-)-Desmethyldeprenyl hydrochloride] | -1.37 |
| CCCN(CCC)[C@@H]1CCc2cccc(O)c2C1 [R-(+)-8-Hydroxy-DPAT hydrobromide] | -1.25 |
| CN1[C@@H]2CC[C@H]1C[C@@H](OC(c1ccccc1)c1ccccc1N)C2 (some centres undefined) [Aminobenztropine] | -2.43 |
| c1ccc(C2CC2)c(OCC2=NCCN2)c1 [Cirazoline hydrochloride] | -1.57 |
| C[C@]12CCC(=O)C(O)=C1CC[C@@H]1[C@@H]2CC[C@]2(C)C(=O)CC[C@@H]12 [Formestane] | -1.25 |
| NCC(CP(=O)(O)O)c1ccc(Cl)cc1 (centres undefined) [Phaclofen] | 0.0843 |
| N#C[C@H](O[C@@H]1O[C@H](C(=O)O)[C@@H](O)[C@H](O)[C@H]1O)c1ccccc1 [Laetrile] | 2.01 |
| CNCC(O)c1ccc(O)cc1 (centres undefined) [Synephrine] | -0.603 |
| CNCC(O)c1ccc(O)cc1 (centres undefined) [Synephrine HCl] | -1.22 |
| C#CCOC(=O)C1=CCCN(C)C1 [Arecaidine propargyl ester hydrobromide] | 0.578 |
| CCC1=C[C@H]2CN3CCc4c([nH]c5ccccc45)[C@](C(=O)OC)(C2)[C@H]13 [Catharanthine] | -4.3 |
| COc1cc(C(O)CN)ccc1O (racemic) [(±)-Normetanephrine hydrochloride] | -1.67 |

| Structure (SMILES) | total cell number |
| --- | --- |
| CC(C)C[C@H]1C(=O)N2CCC[C@H]2[C@]2(O)O[C@](NC(=O)[C@@H]3C=C4c5cccc6[nH]c(Br)c(c56)C[C@H]4N(C)C3)(C(C)C)C(=O)N12 [(+)-Bromocriptine methanesulfonate] | -4.38 |
| CN1[C@@H]2CC[C@H]1C[C@@H](OC(=O)C(CO)c1ccccc1)C2 (some centres undefined) [Atropine] | -3.8 |
| CN1[C@@H]2CC[C@H]1C[C@@H](OC(=O)C(CO)c1ccccc1)C2 (some centres undefined) [Atropine sulfate] | 0.385 |
| CCOc1ccccc1-n1c(C(C)N2CCN(C(=O)COc3ccc(Cl)cc3)CC2)nc2ccccc2c1=O (centres undefined) [Erastin] | -3.85 |
| CC(N)c1cccc(Cl)c1Cl (racemic) [(±)-2,3-Dichloro-alpha-methylbenzylamine hydrochloride] | -2.36 |
| Cc1sc2c(c1C)C(c1ccc(Cl)cc1)=N[C@@H](CC(=O)Nc1ccc(O)cc1)c1nnc(C)n1-2 | -9.64 |
| CCc1c(C(=O)C(N)=O)c2c(OCC(=O)O)cccc2n1Cc1ccccc1 | -0.34 |
| COc1ccc(C(CN(C)C)C2(O)CCCCC2)cc1 (centres undefined) [Venlafaxine hydrochloride] | -1.77 |
| COc1ccc(C(CN(C)C)C2(O)CCCCC2)cc1 (centres undefined) [Venlafaxine] | 0.0371 |
| CNC(=O)Oc1ccc2c(c1)[C@]1(C)CCN(C)[C@@H]1N2C [(-)-Physostigmine] | -1.81 |
| CN(C)C(=O)Oc1cccc([N+](C)(C)C)c1 [Neostigmine bromide] | -1.3 |
| CN1CCN(c2nc3ccccc3nc2Cl)CC1 | -1.44 |
| CN(C)C(=O)Oc1ccc[n+](C)c1 [Pyridostigmine Bromide] | -0.116 |
| CN(C)C(=O)Oc1ccc[n+](C)c1 [Pyridostigmine bromide] | -0.334 |
| CCN1CC2(OC(=O)c3ccccc3NC(C)=O)CCC(OC)C34C1C(CC23)C1(O)CC(OC)C2CC4C1(O)C2OC (centres undefined) [Lappaconite HBr] | -1.25 |
| CC(C)NCC(O)c1ccccc1Cl (centres undefined) [Clorprenaline HCl] | 2.41 |
| C[C@@H]1[C@H](O)[C@@H](C)/C=C/C=C/CC/C=C/C=C/C=C/C=C/[C@H](O[C@H]2O[C@@H](C)[C@H](O)[C@@H](N)[C@H]2O)C[C@@H]2O[C@](O)(C[C@@H](O)[C@H](O)CC[C@@H](O)C[C@@H](O)C[C@@H](O)CC(=O)O[C@H]1C)C[C@H](O)[C@H]2C(=O)O [Nystatin (Fungicidin)] | 4.49 |
| O=c1ccc2[nH]cc(C3=CCNCC3)c2[nH]1 | 0.673 |
| C=CCN1CC[C@]23CCCC[C@H]2[C@H]1Cc1ccc(O)cc13 [Levallorphan tartrate] | -2.07 |
| O=c1[nH]c2ccccc2n1C1CCN(CCCC(c2ccc(F)cc2)c2ccc(F)cc2)CC1 [Pimozide] | -10.3 |
| Cc1cc2c(C(C)C)c(O)c(O)c(C=O)c2c(O)c1-c1c(C)cc2c(C(C)C)c(O)c(O)c(C=O)c2c1O [Gossypol] | -5.94 ± 3.3 |
| CCCN1CC[C@@H]2c3cc(O)ccc3CC[C@@H]21 (racemic) [cis(+/-)-8-OH-PBZI hydrobromide] | 3.26 |
| O=c1[nH]c2ccc(Cl)cc2c(N[C@@H]2CN3CCC2CC3)c1-c1nc2ccccc2[nH]1 | -12 |
| NCCc1c[nH]c2ccc(C(N)=O)cc12 [5-Carboxamidotryptamine maleate] | -0.886 |
| O=S1(=O)N(CCN2CC=C(c3c[nH]c4cc(F)ccc34)CC2)c2cccc3c2N1CCC3 | 0.521 |

| Structure (SMILES) | total cell number |
| --- | --- |
| CCN(CC)C(=O)c1ccc(C2=CC3(CCNCC3)Oc3cccc(O)c32)cc1 | 1.6 |
| NCCCNCCSP(=O)(O)O [Amifostine] | 0.361 |
| Clc1ccc(N2CCN(Cc3c[nH]c4ncccc34)CC2)cc1 [L-745,870 hydrochloride] | -5.68 |
| CN1[C@@H]2C[C@@H](OC(=O)[C@H](CO)c3ccccc3)C[C@H]1[C@H](O)C2 (racemic) [(+/-)-Anisodamine] | -1.15 |
| COc1ccc(OC)c(C(O)C(C)N)c1 (centres undefined) [Methoxamine hydrochloride] | -1.42 |
| Cc1sc2c(c1C)C(c1ccc(Cl)cc1)=N[C@@H](CC(=O)OC(C)(C)C)c1nnc(C)n1-2 | -12.5 |
| N#C/C(=C\c1ccc(O)c(O)c1)C(N)=S [Tyrphostin 47] | -1.34 |
| c1ccc2sc(C3(N4CCCCC4)CCCCC3)cc2c1 [BTCP hydrochloride] | -2.99 |
| CCCC[N+]1(C)[C@@H]2C[C@@H](OC(=O)[C@H](CO)c3ccccc3)C[C@H]1[C@@H]1O[C@@H]12 (single isomer, unassigned; (-)) [(-)-Scopolamine,n-Butyl-, bromide] | -0.98 |
| CCCC[N+]1(C)[C@@H]2C[C@@H](OC(=O)[C@H](CO)c3ccccc3)C[C@H]1[C@@H]1O[C@@H]12 (single isomer, unassigned; (-)) [Butylscopolamine Bromide] | -1.54 |
| COc1cc(OC)c(OC)cc1C=O [Asaraldehyde] | -1.75 |
| OC(c1ccccc1)(c1ccccc1)C1CCNCC1 [Azacyclonol] | -0.583 |
| NC(CP(=O)(O)O)C(=O)O (racemic) [(±)-2-Amino-3-phosphonopropionic acid] | -0.53 |
| NC1CCc2cc(O)c(O)cc2C1 (centres undefined) [6,7-ADTN hydrobromide] | -2.01 |
| Cc1ccc2c(c1)C1(CCN(CCc3nc(-c4ccccc4)oc3C)CC1)OC(=O)N2 | -4.34 |
| Cc1ccccc1-n1c(Cn2ncc3c(N)ncnc32)nc2cccc(C)c2c1=O | -1.13 |
| C[C@@]12C(=O)OC(=O)[C@]1(C)[C@H]1CC[C@@H]2O1 [Cantharidin] | -10 |
| CCC1(C)CC(=O)NC(=O)C1 [Bemegride] | 0.679 |
| C[C@]12C/C(=C/O)C(=O)C[C@@H]1CC[C@@H]1[C@@H]2CC[C@@]2(C)[C@H]1CC[C@]2(C)O [Oxymetholone] | -2.34 |
| C[C@H]1CNCCc2ccc(Cl)cc21 [Lorcaserin HCl] | 2.19 |
| CC1=NN=C(c2ccc(N)cc2)c2cc3c(cc2C1)OCO3 | -0.785 |
| COc1ccccc1N1CCNCC1 [1-(2-Methoxyphenyl)piperazine hydrochloride] | -1.44 |
| CC(=O)c1c(O)c(C)c(O)c(Cc2c(O)c3c(c(C(=O)/C=C/c4ccccc4)c2O)OC(C)(C)C=C3)c1O [Rottlerin] | -1.04 |
| CC(=O)[C@H]1CC[C@H]2[C@@H]3CC[C@H]4C[C@H](O)CC[C@]4(C)[C@H]3C(=O)C[C@]12C [5alpha-Pregnan-3alpha-ol-11,20-dione] | -0.533 |
